Measured values: the supplement of paper PMC4967469
The IC50 comes from the fitted curve, where viability falls to half of the control; where the fit passes the top or lowest dose, that dose stands as a limit. AUC sums up the same curve from the lowest dose to the 256-fold higher top dose; the more sensitive the line, the further below 1. For some of these results: An inferred top dose comes from the curve model; the source does not state it.

Legend:
Assay in all cases: Viability of human cancer cell lines after 72 h of drug (GDSC screen)
[1] = compound: CC(C)(C)c1nc(-c2cccc(NS(=O)(=O)c3c(F)cccc3F)c2F)c(-c2ccnc(N)n2)s1 [Dabrafenib]; details: top dose 10 µM
Description: (§1)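 Human cancer cell lines in 384-well plates, medium with 10% serum, drug for 72 h over a 256-fold dose range (nine 2-fold or five 4-fold steps up to the top dose). Adherent lines were fixed and stained with the nucleic acid dye Syto60, suspension lines read with resazurin; signal relative to control wells, capped at 0 and 100%. One two-parameter sigmoid per drug and line, fitted in a mixed model over all curves with the slope shared within a line.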

[2] = compound: CCc1c2c(nc3ccc(O)cc13)-c1cc3c(c(=O)n1C2)COC(=O)[C@]3(O)CC [SN-38]; details: top dose 0.05 µM; top dose inferred
Description: as §1

[3] = compound: CN(Cc1cnc2nc(N)nc(N)c2n1)c1ccc(C(=O)N[C@@H](CCC(=O)O)C(=O)O)cc1 [Methotrexate]; details: top dose 0.2 µM
Description: as §1

[4] = compound: CNC(=O)c1ccccc1Sc1ccc2c(/C=C/c3ccccn3)n[nH]c2c1 [Axitinib]; details: top dose 2 µM
Description: as §1

[5] = compound: O=C(CCCCCCC(=O)Nc1ccccc1)NO [Vorinostat]; details: top dose 10 µM
Description: as §1

**Q.** For SIMA (neuroblastoma, adherent), which AUC [1] is on record?
**A.** 0.984

**Q.** And the IC50 [1]?
**A.** > 10 µM

**Q.** And the AUC [2]?
**A.** 0.488

**Q.** And the IC50 [2]?
**A.** 0.00289 µM

**Q.** And the AUC [3]?
**A.** 0.892

**Q.** What about the IC50 [3] of the same cell line?
**A.** > 0.2 µM

**Q.** And the AUC [4]?
**A.** 0.919

**Q.** And the IC50 [4]?
**A.** > 2 µM

**Q.** What about the AUC [5] of the same cell line?
**A.** 0.675

**Q.** What about the IC50 [5] of the same cell line?
**A.** 2.06 µM

**Q.** How did the AUC [1] turn out when SISO (cervix, adherent) was run?
**A.** 0.935

**Q.** What about the IC50 [1] of the same cell line?
**A.** > 10 µM

**Q.** What about the AUC [2] of the same cell line?
**A.** 0.472

**Q.** And the IC50 [2]?
**A.** 0.00263 µM

**Q.** What about the AUC [3] of the same cell line?
**A.** 0.924

**Q.** And the IC50 [3]?
**A.** > 0.2 µM

**Q.** And the AUC [4]?
**A.** 0.954

**Q.** And the IC50 [4]?
**A.** > 2 µM

**Q.** What about the AUC [5] of the same cell line?
**A.** 0.656

**Q.** What about the IC50 [5] of the same cell line?
**A.** 1.66 µM

**Q.** Which results are given for SJRH30 (rhabdomyosarcoma, adherent)?
**A.** AUC [1]: 0.976; IC50 [1]: > 10 µM; AUC [2]: 0.709; IC50 [2]: 0.0124 µM; AUC [3]: 0.895; IC50 [3]: > 0.2 µM; AUC [4]: 0.943; IC50 [4]: > 2 µM; AUC [5]: 0.408; IC50 [5]: 0.348 µM

**Q.** SJSA-1 (bone, adherent) was tested. Which AUC [1] did it give?
**A.** 0.943

**Q.** And the IC50 [1]?
**A.** > 10 µM

**Q.** And the AUC [2]?
**A.** 0.836

**Q.** What about the IC50 [2] of the same cell line?
**A.** 0.0394 µM

**Q.** What about the AUC [3] of the same cell line?
**A.** 0.984

**Q.** What about the IC50 [3] of the same cell line?
**A.** > 0.2 µM

**Q.** What about the AUC [4] of the same cell line?
**A.** 0.975

**Q.** And the IC50 [4]?
**A.** > 2 µM

**Q.** What about the AUC [5] of the same cell line?
**A.** 0.824

**Q.** And the IC50 [5]?
**A.** 7 µM

**Q.** What does the source list for SK-GT-2 (stomach, adherent)?
**A.** AUC [1]: 0.852; IC50 [1]: 8.4 µM; AUC [2]: 0.888; IC50 [2]: > 0.05 µM; AUC [3]: 0.794; IC50 [3]: 0.0979 µM; AUC [4]: 0.924; IC50 [4]: > 2 µM; AUC [5]: 0.581; IC50 [5]: 1.06 µM

**Q.** Which results are given for SK-GT-4 (oesophagus, adherent)?
**A.** AUC [1]: 0.941; IC50 [1]: > 10 µM; AUC [2]: 0.949; IC50 [2]: > 0.05 µM; AUC [3]: 0.974; IC50 [3]: > 0.2 µM; AUC [4]: 0.938; IC50 [4]: > 2 µM; AUC [5]: 0.699; IC50 [5]: 2.62 µM

**Q.** With SK-MEL-3 (melanoma, adherent) as the cell line, how does the AUC [1] read?
**A.** 0.251

**Q.** And the IC50 [1]?
**A.** 0.105 µM

**Q.** And the AUC [2]?
**A.** 0.881

**Q.** And the IC50 [2]?
**A.** > 0.05 µM

**Q.** And the AUC [3]?
**A.** 0.924

**Q.** And the IC50 [3]?
**A.** > 0.2 µM

**Q.** And the AUC [4]?
**A.** 0.983

**Q.** What about the IC50 [4] of the same cell line?
**A.** > 2 µM

**Q.** What about the AUC [5] of the same cell line?
**A.** 0.777

**Q.** And the IC50 [5]?
**A.** 4.66 µM

**Q.** With SK-MEL-31 (melanoma, adherent) as the cell line, how does the AUC [1] read?
**A.** 0.955

**Q.** What about the IC50 [1] of the same cell line?
**A.** > 10 µM

**Q.** What about the AUC [2] of the same cell line?
**A.** 0.937

**Q.** What about the IC50 [2] of the same cell line?
**A.** > 0.05 µM

**Q.** And the AUC [3]?
**A.** 0.978

**Q.** What about the IC50 [3] of the same cell line?
**A.** > 0.2 µM

**Q.** And the AUC [4]?
**A.** 0.978

**Q.** What about the IC50 [4] of the same cell line?
**A.** > 2 µM

**Q.** What about the AUC [5] of the same cell line?
**A.** 0.829

**Q.** What about the IC50 [5] of the same cell line?
**A.** 8.72 µM

**Q.** Which AUC [1] does the source give for SK-MG-1 (glioma, adherent) here?
**A.** 0.965

**Q.** And the IC50 [1]?
**A.** > 10 µM

**Q.** What about the AUC [2] of the same cell line?
**A.** 0.606

**Q.** What about the IC50 [2] of the same cell line?
**A.** 0.00614 µM

**Q.** And the AUC [3]?
**A.** 0.987

**Q.** What about the IC50 [3] of the same cell line?
**A.** > 0.2 µM

**Q.** What about the AUC [4] of the same cell line?
**A.** 0.947

**Q.** And the IC50 [4]?
**A.** > 2 µM

**Q.** What about the AUC [5] of the same cell line?
**A.** 0.708

**Q.** What about the IC50 [5] of the same cell line?
**A.** 2.43 µM

**Q.** For SK-MM-2 (myeloma, suspension), which AUC [1] is on record?
**A.** 0.981

**Q.** And the IC50 [1]?
**A.** > 10 µM

**Q.** And the AUC [2]?
**A.** 0.897

**Q.** What about the IC50 [2] of the same cell line?
**A.** > 0.05 µM

**Q.** What about the AUC [3] of the same cell line?
**A.** 0.974

**Q.** And the IC50 [3]?
**A.** > 0.2 µM

**Q.** And the AUC [4]?
**A.** 0.987

**Q.** What about the IC50 [4] of the same cell line?
**A.** > 2 µM

**Q.** And the AUC [5]?
**A.** 0.68

**Q.** What about the IC50 [5] of the same cell line?
**A.** 2.04 µM

**Q.** Which results are given for SK-N-FI (neuroblastoma, adherent)?
**A.** AUC [1]: 0.939; IC50 [1]: > 10 µM; AUC [2]: 0.868; IC50 [2]: 0.0453 µM; AUC [3]: 0.984; IC50 [3]: > 0.2 µM; AUC [4]: 0.904; IC50 [4]: > 2 µM; AUC [5]: 0.787; IC50 [5]: 4.32 µM

**Q.** SK-PN-DW (Ewing sarcoma, adherent) was tested. Which AUC [1] did it give?
**A.** 0.962

**Q.** What about the IC50 [1] of the same cell line?
**A.** > 10 µM

**Q.** And the AUC [2]?
**A.** 0.46

**Q.** And the IC50 [2]?
**A.** 0.00241 µM

**Q.** What about the AUC [3] of the same cell line?
**A.** 0.971

**Q.** And the IC50 [3]?
**A.** > 0.2 µM

**Q.** And the AUC [4]?
**A.** 0.877

**Q.** What about the IC50 [4] of the same cell line?
**A.** > 2 µM

**Q.** What about the AUC [5] of the same cell line?
**A.** 0.579

**Q.** What about the IC50 [5] of the same cell line?
**A.** 1.04 µM

**Q.** With SKG-IIIa (cervix, adherent) as the cell line, how does the AUC [1] read?
**A.** 0.972

**Q.** And the IC50 [1]?
**A.** > 10 µM

**Q.** What about the AUC [2] of the same cell line?
**A.** 0.629

**Q.** And the IC50 [2]?
**A.** 0.00803 µM

**Q.** And the AUC [3]?
**A.** 0.97

**Q.** And the IC50 [3]?
**A.** > 0.2 µM

**Q.** What about the AUC [4] of the same cell line?
**A.** 0.939

**Q.** What about the IC50 [4] of the same cell line?
**A.** > 2 µM

**Q.** What about the AUC [5] of the same cell line?
**A.** 0.625

**Q.** And the IC50 [5]?
**A.** 1.56 µM
